From PubChem BioAssay AID624296 (National Center for Advancing Translational Sciences (NCATS), 2012)
Hit rate of the full screen: of about 350,000 compounds, about 9,900 (2.8%) were called active. Inconclusive results, whose numbers are uncertain, are shown with a selection of clear calls. Calls follow the shape of the dose curve; as a rule, active = well fitted activation curve with a large enough effect; inconclusive = small, poorly fitted or top-dose-only effect; inactive = no such curve, though single readings can be large or run the other way. Potencies of inconclusive entries are left out as doubtful fits.

Experiment: A quantitative high throughput screen for small molecules that induce DNA re-replication in MCF 10a normal breast cells. Also: nearly all actives have a fitted effect of over 50% in size.
Details: MCF 10A DNA re-replication, Hoechst nuclear intensity, 48 h; series mostly up to 46.1 µM
Potency is read from the fitted curve at half-maximal effect; tags tell the direction and shape of the fitted curve.

Structure (SMILES) | Potency
CCCC1(CC)C(=O)NC(=O)N=C1N (stereo not given) | inactive
OCCN1CCN(Cc2cc(Cl)c3cccnc3c2O)CC1 | inconclusive [activator, single point]
CCOC(=O)/C(C#N)=C/c1c(N2CCN(c3ccccc3)CC2)nc2c(C)cccn2c1=O | inconclusive [activator, single point]
CC(=O)N1N=C(c2ccccc2)OC1(C)CC(=O)Nc1ccccc1 (stereo not given) | inactive
OC1CCN(c2c3c(nc4cc(-c5ccc(Cl)cc5)nn24)CCC3)CC1 | inactive
COC(=O)c1cccc(S(=O)(=O)N2CCCCC2)c1 | inactive
CCCc1[nH]nc2c1C(c1cccc(OC(=O)c3ccco3)c1)C(C#N)=C(N)O2 (stereo not given) | inconclusive [activator, single point]
Cc1cccc2cc(CN(Cc3nnnn3C3CCCC3)C3CCCCC3)c(=O)[nH]c12 | inconclusive [activator, single point]
O=C(/C=C/c1ccco1)OCC(=O)N1CCCCC1 | inactive
C/C(CC(C)C)=N\Nc1ccc(S(N)(=O)=O)cc1[N+](=O)[O-] | inactive
COc1ccccc1N1CCN(C(=O)C(Sc2ccccc2)c2ccccc2)CC1 (stereo not given) | inconclusive [activator, partial curve]
O=C(CCCl)N(Cc1nc2ccccc2c(=O)[nH]1)Cc1cccs1 | inactive
O=C(OCc1ccccc1)C1=[N+]([O-])OC(C(=O)OCc2ccccc2)C1c1c[nH]c2ccccc12 (stereo not given) | inconclusive [activator, single point]
COc1cc(-c2nnc(COc3ccc4ccccc4c3)o2)cc(OC)c1OC | inconclusive [activator, partial curve]
CC(C)(c1ccccc1)c1ccc(OCCN2CCOCC2)cc1 | inconclusive [activator, single point]
O=C(COc1cc(F)ccc1[N+](=O)[O-])NCCCc1ccccc1 | inactive
CCC(=O)N(Cc1ccco1)c1nc(C(=O)Nc2ccc(Cl)cc2)c(C)s1 | inconclusive [activator, partial curve, poor fit]
CCCCNc1nc2ccccc2n1CC(=O)N1CCc2ccccc2C1 | inactive
Fc1ccc(-c2csc(NC(=S)Nc3ccccc3)n2)cc1 | inconclusive [activator, single point]
CC(C)C(=O)C1=Cc2cc([N+](=O)[O-])ccc2OC1N1CCOCC1 (stereo not given) | inconclusive [activator, single point]
Cn1ncc(C#N)c1/N=C/N(Cc1ccccc1)Cc1ccccc1 | inconclusive [activator, single point]
CCC(C)c1ccc(S(=O)(=O)N2CCN(C(=O)c3ccc(Cl)c(S(=O)(=O)N4CCOCC4)c3)CC2)cc1 (stereo not given) | inactive
Cc1ccc(NS(=O)(=O)c2cccs2)cc1S(=O)(=O)N1CCCCCC1 | inconclusive [activator, single point]

Structure (SMILES) | Potency
COc1ccc(C(=O)N2CCN(c3ccccc3Cl)CC2)cc1S(=O)(=O)NC1CC1 | inactive
O=C(Nc1ccccc1-c1ccccc1)NC1CC2CCCC(C1)N2Cc1ccc(F)cc1 (stereo not given) | inconclusive [activator, single point]
Cc1ccc(C)c(N2CCN(C(=O)c3ccccc3Br)CC2)c1 | inconclusive [activator, single point]
CN1CCN(S(=O)(=O)c2ccc(Cl)s2)CC1 | inactive
Cc1ccc2ncnc(Oc3ncccc3[N+](=O)[O-])c2c1 | inactive
Cc1ccc(S(=O)(=O)N2CCN(C(=O)N3CCOCC3)CC2)cc1C | inconclusive [activator, single point]
CC(C)OCCCNC(=O)c1c(N)n(/N=C/c2ccccn2)c2nc3ccccc3nc12 | active: 4.11 µM
COc1ccc(C(=O)/C=C/NCc2ccc(C)cc2)cc1 | active: 13 µM
O/N=C/c1ccn(-c2ccc(Br)cc2)c1 | inconclusive [activator, single point]
O=C(CNC(=O)C(c1ccccc1)c1ccccc1)N/N=C/c1ccc(O)c([N+](=O)[O-])c1 | inconclusive [activator, partial curve]
CCOc1cccc(/C=N/NC(=O)c2cc(-c3cccn3C)n[nH]2)c1O | inconclusive [activator, single point]
CCOC(=O)/C=c1\s/c(=C\c2ccc(-c3ccccc3)cc2)c(=O)n1CC(=O)NCc1ccc2c(c1)OCO2 | inconclusive [activator, full curve, poor fit]
COc1cc(-c2nn3c(C4CCCCC4)nnc3s2)cc(OC)c1OC | inconclusive [activator, partial curve, poor fit]
COc1ccc(C(CNC(=O)c2cccc(S(=O)(=O)Nc3ccc(F)cc3)c2)N2CCCC2)cc1 (stereo not given) | inconclusive [activator, partial curve, poor fit]
Cn1c(NCC(O)CO)nc2c1c(=O)n(Cc1ccc(Cl)c(Cl)c1)c(=O)n2C (stereo not given) | inactive
Cc1ccc2c(c1)[C@H]1[C@H](CO2)[C@H](c2ccccc2)[C@]2(C)C(=O)N(Cc3ccco3)CC(=O)N12 | inconclusive [activator, partial curve, poor fit]
Cc1ccccc1NC(NC(=O)c1cccs1)C(Cl)(Cl)Cl (stereo not given) | inconclusive [activator, partial curve, poor fit]
C[C@H](NC(=O)c1ccc(Cl)c(S(=O)(=O)N2CCOCC2)c1)c1nc2ccccc2[nH]1 | inactive
O=c1c2[nH]cnc2n(-c2cccc(Br)c2)c(=O)n1Cc1ccccc1 | inconclusive [activator, full curve, poor fit]
O=C(/C=C/c1ccnc2ccccc12)c1cccs1 | active: 9.2 µM
CN1CCN(c2ccc(CNC(=O)c3cc4ccccc4o3)cc2)CC1 | active: 23.1 µM
Cc1c(NC(=O)c2ccc(Br)o2)c(=O)n(-c2ccccc2)n1C | inconclusive [activator, single point]
